The other results are listed elsewhere or left out. At the low end of the ranking the order means little. Measured with an extract: partners may take part in the binding.

The target of this experiment is T1, HNF4alpha8 (COS-7 nuclear extract) (UniProt P41235-5).
T1 sequence: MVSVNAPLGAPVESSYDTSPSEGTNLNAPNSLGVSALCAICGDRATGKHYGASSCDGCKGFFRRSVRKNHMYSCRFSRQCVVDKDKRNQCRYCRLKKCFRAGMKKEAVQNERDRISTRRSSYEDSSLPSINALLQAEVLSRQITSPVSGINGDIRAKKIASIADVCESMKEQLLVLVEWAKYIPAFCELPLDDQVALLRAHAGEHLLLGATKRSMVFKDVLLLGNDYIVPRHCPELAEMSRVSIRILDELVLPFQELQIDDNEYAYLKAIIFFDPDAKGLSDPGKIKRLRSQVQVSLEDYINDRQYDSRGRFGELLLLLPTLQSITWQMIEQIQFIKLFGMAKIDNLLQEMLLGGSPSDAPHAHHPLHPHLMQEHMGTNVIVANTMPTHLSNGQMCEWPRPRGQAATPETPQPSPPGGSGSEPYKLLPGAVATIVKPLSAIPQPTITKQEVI
Put plainly: protein-binding microarray. To be noted: COS-7 nuclear extract on double-stranded Agilent 4x180k PBM; binding buffer, salt, pH and temperature not given; high values mean tight binding; double strand, one strand shown; sequences stand for … in …GCCTAGGGAGATTAGAGTATCGGTCGA
On to AAAGTCCATATTCTTTGTTTGGATGCCAAA, for which the binding signal (log2 normalized intensity) stood at 2.25.

With GGTGGAGGCAGCAGCTCCAATTAGGAGATC, the binding signal (log2 normalized intensity) was -1.4. On to GCCCAAGGAGACAGGCTTTGAGCATCGCTG, for which the binding signal (log2 normalized intensity) was -1.41. For the sequence TGCTCCGGTTCCCAATAAGTTCCTCATTTT, the binding signal (log2 normalized intensity) was -0.238. Turning to GTGCCATTGAGATGGTAACCACACCAAGGG, the binding signal (log2 normalized intensity) is -1.34. Turning to ATTGAGGCTTAGCAGCTTGAGGCTCCGATA, the binding signal (log2 normalized intensity) is -1.33. Regarding GAACTTTGACCACCTACTGTTTGTGCAGAG, the binding signal (log2 normalized intensity) came to 5.12. For the sequence AGATTTATCTCTCCAAGGTACTGTGAACTC, the binding signal (log2 normalized intensity) was 2.73. With ATTTTACAGATGGGGCTGTTTCTTTGTGTG, the binding signal (log2 normalized intensity) amounted to 1.49.

As for TGACCATCTGCGAAATGGGGATAAACACCC, the binding signal (log2 normalized intensity) was -1.13. Regarding CCCACTCTCCTCTGCCACTGTATCAGGGAG, the binding signal (log2 normalized intensity) was -1.31. For CTGGCTTTCATTCCACTGACTTGCAACCTT, the binding signal (log2 normalized intensity) amounted to 1.09. Take GCTAGTAAGGAGCTGAGTCATAGTGGACTT: the binding signal (log2 normalized intensity) is 4.03. As for CATGACTTACTTGGCATCATCAAACAAGAT, the binding signal (log2 normalized intensity) is -1.16. Next, CTCTAGAGTGGTTGCCTGTGAGTCAGGTAC: 0.816; GAAGATGCCACGCAATGCATAGCAGAAACA: -1.34. With CTATGAATGAAGTCTTTTCCATCGCCCTTA, the binding signal (log2 normalized intensity) came out at 1.55. On to GCTTCCTGGAGAAATGTCCGCCTGGTGTTT, for which the binding signal (log2 normalized intensity) is 1.1.

In the case of CAGGCTCATTCTAACCCAAATGCAAATACC, the binding signal (log2 normalized intensity) turned out to be 0.831. To GATACGGCCTGGACTCCAAGCCCCAAAAAC belongs 1.98; to GAGGTGTTCTCTGGGGTTAGCCAAACAAAT, 0.13. As for AAGTGCCCGGATAAACTTCCAGCCATTTTG, the binding signal (log2 normalized intensity) was -1.13.

For AAATGAGTTTCATTAGACAGAAACCAAGCT, the binding signal (log2 normalized intensity) is -1.46. To TGGCCATGAAAGTATCCAGCTCCTCTTCAC belongs -1.21; to CCCGGCAGATCAGGGTCAGGCTGTGGTACG, 1.4. Take CTCCAGAAATACAGAAGCTGCTCTAAGAAT: the binding signal (log2 normalized intensity) is -1.1. In the case of TACTAATTTTGTTTCCTAGTTCAAACAGGC, the binding signal (log2 normalized intensity) was -0.105. Turning to GGACTTCGAATGGTATGCTAGAGTACTTGG, the binding signal (log2 normalized intensity) worked out at 1.51.

On to ATTCAATGTTTGGGAGCCTTGCACACTCGC, for which the binding signal (log2 normalized intensity) was -1.23. CCTCCAACTATTGCTCAGCAGGGAGATGGA: the binding signal (log2 normalized intensity) was -1.34. Regarding GAGTTCAGATCACAAAGGAGCTTGTAAGCC, the binding signal (log2 normalized intensity) is -1.37. With TTCAGGAAGGCCTGTTAAAAACACGAGCTA, the binding signal (log2 normalized intensity) is -1.35. With AGCTGTTACTCATTCCCAGGTCGGGCCGGA, the binding signal (log2 normalized intensity) turned out to be 0.376. Turning to TTTATTTGAAGAAATGGTGGACTTTGTAGC, the binding signal (log2 normalized intensity) worked out at 6.52.

Consider CCAGTTCACTCAGTCCACATGGTGTCTTTT, for which the binding signal (log2 normalized intensity) is 1.35. For TCCTTGTTTTTTCATAGGCCTTTATTTGCT, the binding signal (log2 normalized intensity) was found to be 0.625. TGGTCATGGAGGGAACAAAACTTCACCTCC: the binding signal (log2 normalized intensity) was -1.27. With TTTTCCCCCTTTGAAGTCTGCCCTCCATGT, the binding signal (log2 normalized intensity) is 4.83. As to TTGAACACCACAAGTTTGAACTGCACAGGC, the binding signal (log2 normalized intensity) stood at 0.14.

Take TCTGCTGTGCCGGGTATGTGGGGCGTGTGT: the binding signal (log2 normalized intensity) is 2.19. As for ATGATAAGTAGACAGATCAGAGAGATTTTC, the binding signal (log2 normalized intensity) was -1.28. To CAACTAGAGATAAACTTTTGATTGCTTAGG belongs -1.33. Next, CAAGCAAAAGCCAAGGCATCTGGGGGCTTG: -1.14; AAGTCTTTGTTCCTAGCCACCATGCTCGGC: -1.33. For TCTGGCCTGACCCCCTCCTCACCCCACTTT, the binding signal (log2 normalized intensity) came out at 5.23. Consider CGTGGTGGATGGGGGAGGGGACTTCGCTGG, for which the binding signal (log2 normalized intensity) was -1.3. For TGTTATCTTTTCAAGGATGTTTATACAGCC, the binding signal (log2 normalized intensity) was 1.27. In the case of GATGAATCCACAAAGATAAGAAAAAAACAG, the binding signal (log2 normalized intensity) is -1.31. For CTTTAATTACCTGTTCTAAGCACCTCTGCT, the binding signal (log2 normalized intensity) was -1.01.

With AACTATGTTTATCAGAGCAAAGTTCAATTT, the binding signal (log2 normalized intensity) came out at 5.19. For TAAACCTAGCTACTAGCCATTTCGGCACCT, the binding signal (log2 normalized intensity) is -1.49.

Turning to CTGCTCTCAGCTCCTAAAGGCAGCCCCTTA, the binding signal (log2 normalized intensity) was -1.33. Next, GAGTTCCAAAGTCCATGTTCATAACTGTTA: 5.37; GTGGAGACACTGCCAGTGTCTCAGGGAGCT: -1.34. As to AGCATATGTTGACCCGAGTGCCCTTTGGCA, the binding signal (log2 normalized intensity) was determined as 5.32. TTCAAAGAAGCTGTTGGAAAGGGCACTGAT: the binding signal (log2 normalized intensity) turned out to be 0.663. Turning to GATTAAAGGAGAACTGAGTAGGAGAATGTT, the binding signal (log2 normalized intensity) is -1.17. Take AAGCCCAAGGGATCGTCCAAATACCTAGCT: the binding signal (log2 normalized intensity) is -1.35.

GAATTTTCTCATCCGCTAATGACACCAGGG: the binding signal (log2 normalized intensity) is -1.26.

Take CCCCCAGAGCCCCGTGTCTCCCTACCTCTG: the binding signal (log2 normalized intensity) was 3.76. On to GCAAGATTAAGATCAAAGAATTCCTAATAA, for which the binding signal (log2 normalized intensity) is -1.42. For the sequence CAAGAATTTAAGAGAACTAGAGATAAGGTA, the binding signal (log2 normalized intensity) is -1.36. To TATATTTGTGCAAGAATGCGTCATCCGCAT belongs -1.04; to CTCTAACCACTTTGAAATAGTGACCTCTGC, 5.01; to ACATTCTTCAATATCAGTGGCACTCTCTGG, 1.15.

Take TCCCCTCCCAAGGCAGCAATCCCCTGCAAT: the binding signal (log2 normalized intensity) turned out to be 4.91.

For CTCTGTGCTCCCAGTTCCCTCATTAGTAAC, the binding signal (log2 normalized intensity) was 0.334.

As for AGCCTGCCTGCTCCTCCTCGTGAGTTGGAG, the binding signal (log2 normalized intensity) was -1.32. Next, ATTAGCTTCTGTTCAGGAGTTGTCTGTCCA: 1.39. As to ACAGATGGTGTTAAATCCTATCCTAGGGTT, the binding signal (log2 normalized intensity) turned out to be 0.667. As to CACAGAGGGAAATGCAAACATTTCTGGAAT, the binding signal (log2 normalized intensity) is -1.29. Regarding GATTAGAAGATAGCTTTAAAGACCAAAGAT, the binding signal (log2 normalized intensity) is -1.38.

These data come from publication PMC10726135.
